Results: the antibiotic and cytotoxicity screens of Wong et al. (2023)
The list shows a part of the results.

Test system: S. aureus RN4220
Experiment: growth inhibition call (relative growth <= 0.2)
Conditions: 50 µM

Growth inhibition call, inactive:
C[C@@H]1CCCCO[C@@H](CN(C)Cc2ccc(C(=O)O)cc2)[C@@H](C)CN([C@@H](C)CO)C(=O)c2cc(NS(=O)(=O)c3ccc(Cl)cc3)ccc2O1
Cn1c(=O)c2c(ncn2CC(=O)O)n(C)c1=O
NC/C(=C/F)CCc1ccc(F)cc1
C[C@H](CO)N1C[C@H](C)[C@@H](CN(C)Cc2ccc(C(=O)O)cc2)OCCCC[C@H](C)Oc2ccc(NC(=O)Nc3ccc(F)cc3)cc2C1=O
C=CCN1C(C)=N[C@H]2C=C[C@H](NCCCO)[C@H]21
Cc1cc(C)c(-c2ccc(NC(=O)[C@H](Cc3ccc(C(=O)NCCS(=O)(=O)O)cc3)c3ccc(-c4ccc(C(C)(C)C)cc4)cc3)cc2)c(C)c1
O=C(C[C@@H]1C[C@H]2c3cc(NC(=O)C4CCOCC4)ccc3O[C@H]2[C@H](CO)O1)NCc1ccc2c(c1)OCO2
